# Data taken from ChEMBL document CHEMBL4888484, “Replenishing the malaria drug discovery pipeline: Screening and hit evaluation of the MMV Hit Generation Library 1 (HGL1) against asexual blood stage Plasmodium falciparum ,using a nano luciferase reporter read-out” (2022).
# The whole screen tested about 150,000 compounds, of which about 540 (0.36%) showed an effect of 50% or more. The list shows a part of the results.
# Tested on: Plasmodium falciparum
# Assay: Primary screen in NF54 nanoGlo assay, in single point, at 2uM, 72h; a lower Z score goes with more inhibition
# Type: functional, Erythrocyte
# Details: timepoint 72 hour
Structure (SMILES),% Inhibition,Z score
O=C(O)CNC(=O)CN1Cc2cc(Cl)ccc2C[C@H]1c1ccccc1,-6%,0.52
CCCc1nc(NC[C@H]2CCN(CCC)C2)no1,-13%,1.17
Cc1ccc([C@H](C)NCC2(CS(C)(=O)=O)CC2)o1,-11%,1.5
O=C(C1CCCC1)N1CCN(c2ccc(-c3noc(C(F)(F)F)n3)cn2)CC1,20%,-2.64
CC1CCN(C(=O)c2ccccc2N2CCC(NC(=O)c3ccc(F)cc3F)CC2)CC1,10%,-1.4
COCCN(Cc1ccc(C)o1)C[C@H](C)O,9%,-1.03
CCOCCO/C(=N/C(=O)c1ccc(C(F)(F)F)cc1)NCc1ccc2c(c1)OCO2,-11%,0.93
O=C(CC1(N2Cc3ccccc3C2=O)CCCCC1)NCCCn1ccnc1,-7%,1.18
COCc1ncc(CN2CCC3(CCC(=O)N(Cc4ccccc4)C3)CC2)cn1,-4%,0.79
CN(CC(N)=O)C(=O)CCc1ccc(Cl)s1,-6%,0.7
CCn1nnc2ccc(-c3noc(CCc4c[nH]c5ccccc45)n3)cc21,-9%,1.48
Cc1ccc(S(=O)(=O)NCc2ccc3c(c2)N(C(=O)c2ccccc2)[C@@H](C)C3)c(C)c1,4%,-0.67
Cc1cccnc1CNC(=O)N[C@@H](C)c1cnn(C)c1,-8%,1.07
O=C(Nc1ccc(Cl)c(Cl)c1)N1CCN=C1c1cccc(Cl)c1,5%,-0.65
Cc1cc(C)cc(CN2CCN(C(=O)CCCS(N)(=O)=O)CC2=O)c1,-1%,0.14
CCc1ccc2c(c1)C(=C1SC(C(=O)OC)=C(C(=O)OC)S1)C(=S)C(C)(C)N2,-5%,0.62
Cc1noc(COCC(=O)N[C@H]2COc3c2ccc(C)c3C)n1,-7%,1.09
Cc1cc(CNC(=O)[C@]2(C)CC[C@H](C)C2(C)C)n(C)n1,5%,-0.6
CC1(C)C[C@H](S(=O)(=O)N2CCN(c3nc[nH]n3)CC2)CO1,-1%,0.17
CC(C)c1noc(CN(C)C[C@H]2CCCCO2)n1,-11%,2.01
Cc1c[nH]c(C(=O)N(C)Cc2ccc3c(c2)OCO3)n1,-5%,0.65
CC(C)(C)Oc1ccc(-c2noc(-c3cc(C(N)=O)cs3)n2)nc1,-9%,0.95
CCCCS(=O)(=O)N[C@H](c1ccccc1)C1CC1,-1%,0.09
